{"source": "the RNAGym collection of RNA variant scans (doi:10.7554/elife.90254)", "parents": {"B1": {"name": "LINE1-mini (parent)", "chain": "GGCAGAGCUCAACACAGCGUGGCAAAGUGGCUGUGGCUAGACUGCC"}}, "note": "Read counts are not given, so values of variants with three or more changes are uncertain."}
{"variants_of": "B1", "assay": "self-cleavage, relative activity (ratio to wild type); higher = more cleavage; in vitro, sequencing; the parent is a self-cleaving ribozyme"}
{"variant": "C18U G19U G36C", "self-cleavage": 0.06}
{"variant": "C8G G19U A25G C37A A39G", "self-cleavage": 0.02}
{"variant": "A16C U38A C42U", "self-cleavage": 0.01}
{"variant": "G17C U20G U34C", "self-cleavage": 0.06}
{"variant": "G2U G22U G30U C31U", "self-cleavage": 0.02}
{"variant": "A16C U20A G35U", "self-cleavage": 0.01}
{"variant": "C3U G7U C10G A39G", "self-cleavage": 0.03}
{"variant": "A11G C15A G17U G19U G29U G40U", "self-cleavage": 0.02}
{"variant": "G29U C37U G44U", "self-cleavage": 0}
{"variant": "G1A C15A U34C A39C", "self-cleavage": 0.03}
{"variant": "G17C C31G G35U C37A", "self-cleavage": 0.03}
{"variant": "G1A G17U G21C G29A G33U", "self-cleavage": 0.04}
{"variant": "G1U C23A U38C", "self-cleavage": 0.43}
{"variant": "A4C C10U C15A U20C", "self-cleavage": 0.04}
{"variant": "G1C A26G G35U", "self-cleavage": 0.03}
{"variant": "C3A C8A U34C", "self-cleavage": 0.36}
{"variant": "G2C G5U A14C A16G U32A", "self-cleavage": 0.01}
{"variant": "G2C C10U C45A", "self-cleavage": 0.08}
{"variant": "C3U A16U A39U C45A", "self-cleavage": 0.1}
{"variant": "C3A G44A C45U", "self-cleavage": 0.14}
{"variant": "C8A A11U A12G C15A A25C G27U G36U", "self-cleavage": 0}
{"variant": "G7A U9G C18U", "self-cleavage": 0.07}
{"variant": "C10U G21C U34G C42G", "self-cleavage": 0.03}
{"variant": "C15G U34A C42U", "self-cleavage": 0.04}
{"variant": "G7C A11G C15G G17U A25U", "self-cleavage": 0.01}
{"variant": "G2C A11G C13A G44U C46A", "self-cleavage": 0.01}
{"variant": "C8A G30U U34A C37U", "self-cleavage": 0.15}
{"variant": "U9A G17A C18A", "self-cleavage": 0.01}
{"variant": "G2C C10A C13G C18A G27A G29C", "self-cleavage": 0.02}
{"variant": "A24U G30A C31A G44U", "self-cleavage": 0.02}
{"variant": "G1U A4U C10A A16G G30C", "self-cleavage": 0.01}
{"variant": "C13A A16U U32C", "self-cleavage": 0.06}
{"variant": "A6G A16C C23U", "self-cleavage": 0.03}
{"variant": "G5C A11U C15A", "self-cleavage": 0.02}
{"variant": "C23G G27A G30A", "self-cleavage": 0.68}
{"variant": "G30U U32G U38G", "self-cleavage": 0.02}
{"variant": "A16G U38A A41U", "self-cleavage": 0.04}
{"variant": "C15G C37A U38A", "self-cleavage": 0.04}
{"variant": "C13U A14U C15G", "self-cleavage": 0.07}
{"variant": "A25C A26C C45U", "self-cleavage": 0.14}
{"variant": "U9C C18U G40U", "self-cleavage": 0.02}
{"variant": "A12G C18G G22A", "self-cleavage": 0.02}
{"variant": "U9C G30C U32G", "self-cleavage": 0.01}
{"variant": "A14C A25G G30A C45A C46G", "self-cleavage": 0.01}
{"variant": "C13G A25C G29U C31A", "self-cleavage": 0.08}
{"variant": "C10A A26C G33C G40C", "self-cleavage": 0.02}
{"variant": "G2U C3G A41G", "self-cleavage": 0.02}
{"variant": "A4C G5A A24U", "self-cleavage": 0.18}
{"variant": "C18A A26G G33C A39U G44U", "self-cleavage": 0.02}
{"variant": "G1C A4C G5C", "self-cleavage": 0.03}
{"variant": "A12G C15A C31A U38A", "self-cleavage": 0.01}
{"variant": "C13A A24U C31G A41G", "self-cleavage": 0.04}
{"variant": "G2C G7U G19U C42U", "self-cleavage": 0.04}
{"variant": "G2A A6C G27A", "self-cleavage": 0.23}
{"variant": "G19U A25G A26U U34A", "self-cleavage": 0.04}
{"variant": "A4U G5A G17U C18A", "self-cleavage": 0.03}
{"variant": "A14C G21C G22C A41U", "self-cleavage": 0.02}
{"variant": "G5A A26C C45U", "self-cleavage": 0.13}
{"variant": "G2A A16U G22C", "self-cleavage": 0.2}
{"variant": "G22C G36C U43A", "self-cleavage": 0.03}
{"variant": "C10U C18G C37G A39C", "self-cleavage": 0.06}
{"variant": "G1C C8G A12U A41C", "self-cleavage": 0.01}
{"variant": "G1A C13A C31A G33U", "self-cleavage": 0.02}
{"variant": "A12U G27C G35C U38G", "self-cleavage": 0.02}
{"variant": "A12U G19A U28G G30U", "self-cleavage": 0.29}
{"variant": "C8U G19A G21A U38G C42U", "self-cleavage": 0.03}
{"variant": "A16C U20G C45A", "self-cleavage": 0.02}
{"variant": "A6C A16U G40A C46G", "self-cleavage": 0.02}
{"variant": "C3U A16G G19C", "self-cleavage": 0.14}
{"variant": "C18A G40C C46U", "self-cleavage": 0.03}
{"variant": "G5U C13U C46A", "self-cleavage": 0.18}
{"variant": "A16U G22U A39G", "self-cleavage": 0}
{"variant": "G1U C8G G22U G40A", "self-cleavage": 0.03}
{"variant": "G2U A14G G36A U38A", "self-cleavage": 0.01}
{"variant": "G17C C31U U34A", "self-cleavage": 0.01}
{"variant": "C8U G19C G30A G36A", "self-cleavage": 0.31}
{"variant": "G5U A16G G21A G35A G36U U43C", "self-cleavage": 0.04}
{"variant": "G7A C23U G27A G40C", "self-cleavage": 0.3}
{"variant": "A11G C15U C31G G35U C37G", "self-cleavage": 0.01}
{"variant": "C8A C13U G17A A25U A26G U38A", "self-cleavage": 0.23}
{"variant": "C3U C18G C46G", "self-cleavage": 0.21}
{"variant": "A4U C37A C45U", "self-cleavage": 0.06}
{"variant": "A11G G22C A25G G30U U34G G35C", "self-cleavage": 0}
{"variant": "U9C C15A C18A C23G U28A", "self-cleavage": 0.03}
